Test results taken from PubChem BioAssay AID488969 (Vanderbilt High Throughput Screening Facility, 2010).
In all, about 110,000 compounds were measured (“z-score”: median about -0.1, highest 2% from about 2 on). This is one part of the list. The source made the active and inactive calls.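 Rule for the calls: active = z-score in the third read window above 3 or below -3; inactive = the rest.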

Target: Metabotropic glutamate receptor 8 (Rattus norvegicus) (UniProt P70579)
Test: mGluR8 Gi/Go-coupled signaling modulation – cell-based, rat, thallium flux, HTS, primary screen (AID 488969)
Details: HEK293 rat mGluR8, GIRK (G protein-gated inwardly rectifying potassium channel) thallium flux, FluoZin2; at 10 µM; stronger effect = higher value; submaximal glutamate (EC20) added with thallium

Chain of UniProt P70579 (P70579 whole entry, looked up): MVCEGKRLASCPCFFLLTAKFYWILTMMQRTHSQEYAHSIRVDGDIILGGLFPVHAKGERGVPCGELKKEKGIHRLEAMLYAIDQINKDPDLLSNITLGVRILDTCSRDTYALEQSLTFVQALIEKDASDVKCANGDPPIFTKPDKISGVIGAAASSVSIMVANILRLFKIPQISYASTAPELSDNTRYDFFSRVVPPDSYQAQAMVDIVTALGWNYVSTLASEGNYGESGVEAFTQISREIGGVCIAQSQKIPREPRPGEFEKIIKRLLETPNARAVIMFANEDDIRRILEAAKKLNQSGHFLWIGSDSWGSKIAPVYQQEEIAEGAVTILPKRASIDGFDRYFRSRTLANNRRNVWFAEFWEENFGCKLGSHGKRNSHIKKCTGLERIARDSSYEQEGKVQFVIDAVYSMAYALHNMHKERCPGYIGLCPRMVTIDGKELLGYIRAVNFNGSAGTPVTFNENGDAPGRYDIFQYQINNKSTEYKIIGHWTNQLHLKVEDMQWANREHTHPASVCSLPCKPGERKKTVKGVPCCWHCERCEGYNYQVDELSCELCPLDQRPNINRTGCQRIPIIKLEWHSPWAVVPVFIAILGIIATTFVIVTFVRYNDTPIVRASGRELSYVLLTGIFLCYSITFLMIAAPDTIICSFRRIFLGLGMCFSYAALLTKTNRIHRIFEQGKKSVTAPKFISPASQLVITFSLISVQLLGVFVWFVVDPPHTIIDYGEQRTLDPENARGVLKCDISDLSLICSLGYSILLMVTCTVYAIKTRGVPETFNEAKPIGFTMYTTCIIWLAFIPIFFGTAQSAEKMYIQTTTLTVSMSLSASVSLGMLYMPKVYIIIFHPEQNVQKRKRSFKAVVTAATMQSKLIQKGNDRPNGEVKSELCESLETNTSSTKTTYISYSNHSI

SMILES | z-score
COc1ccc(CCNC(=O)c2ccc(CN3CCC(Cc4ccccc4)CC3)cc2)cc1OC | 0.37
Nc1cc(CN2C(=O)c3ccccc3C2=O)cc(Cl)c1O | -0.0748
COc1ccc(/C=N/OC/C(O)=C(\C#N)c2nc3ccccc3[nH]2)cc1OC | 0.06
O=C1/C(=C/N(C(=O)c2ccco2)c2ccc(Cl)cc2)Sc2ccccc21 | -0.348
COc1ccc(/C(O)=C2/C(=O)C(=O)N(CCCN(C)C)C2c2ccc(Cl)cc2)cc1OC (stereo unspecified) | 0.00098
COc1cccc(N2CCN(c3ncnc4c3cnn4-c3ccc(C)cc3C)CC2)c1 | 0.0229
Cc1csc(NC(=O)c2cc(-c3ccccc3)nc3ccccc23)n1 | -0.426
Cc1c(-c2ccccc2)oc2c(C(=O)N3CCN(c4ccc([N+](=O)[O-])cc4)CC3)cccc2c1=O | -0.651
CCOc1ccccc1-n1c(SCC(=O)NC2CCCC2)nnc1-c1ccoc1C | -0.387
O=C(O)CC/C(=N\Nc1ccc(S(=O)(=O)N2CCCC2)cc1[N+](=O)[O-])c1cccs1 | -0.648
CN1CCN(C(=O)c2ccccc2NC(=O)CCN2C(=O)c3ccccc3C2=O)CC1 | -0.0823
CCc1ccccc1NC(=S)NC1CC2CCCC(C1)N2Cc1cccs1 (stereo unspecified) | -0.211
CSc1nsc(/C=C/Nc2cccc(Cl)c2)c1C#N | 0.84
CCCC(=O)Nc1ccc2c(c1)nc1n2CCOC1 | -0.399
S=C1NC(c2ccccc2)N2C(=S)NC(c3ccccc3)N12 (stereo unspecified) | -1.08
CCOC(=O)c1cnc(SCC(=O)Nc2nc(C)c(C)s2)nc1N | active: 3.65
CCn1c(-c2cc3ccccc3cc2O)n[nH]c1=S | 2.62
COc1ccc2nc(SCC(=O)Nc3c(C)cccc3C)[nH]c2c1 | 0.153
COc1ccc(C2C(C(C)=O)=C(O)C(=O)N2c2nccs2)cc1OC (stereo unspecified) | -0.189
CCOC(=O)COc1ccc(S(=O)(=O)N2CCN(C(=O)OCC)CC2)cc1 | 0.268
Cn1c(=O)c2c(nc(N/N=C/c3cccs3)n2Cc2ccc(Br)cc2)n(C)c1=O | -0.365
COc1cccc2c(=O)c3c(cnn3C)n(C)c12 | -0.286

SMILES | z-score
O=C(NCc1ccccc1)c1ccc2nccnc2c1 | -0.133
Cc1nc2ccccc2n1CC(=O)N/N=C\C=C\c1ccccc1 | -0.388
COc1ccc(-n2ncc3c(NCCN4CCOCC4)ncnc32)cc1 | -0.0701
CC(C)c1nnc(NC(=O)CCC(=O)NC2CCCCCCC2)s1 | 0.041
CC(=O)c1c(N)[nH]c(-c2ccccc2)nc1=S | 1.28
Cc1cccc2sc(NC(=O)c3cccc(S(=O)(=O)N4CCc5ccccc54)c3)nc12 | -0.141
COc1ccc(NC(=S)N2CCNC(=O)C2CC(=O)Nc2ccc(C)cc2)cc1 (stereo unspecified) | -0.0767
CCN(CC)S(=O)(=O)c1ccc2[nH]cc(C(=O)NCCCN3CCCCC3C)c(=O)c2c1 (stereo unspecified) | 0.337
CCOc1ccc(C2=NNC(c3cccs3)=Nc3ccc(OC)cc32)cc1OCC | -0.0395
Cc1cc(/C=N/NC(=O)C(O)(c2ccccc2)c2ccccc2)c(C)n1-c1ccccc1 | -0.284
Cc1ccc(SC(C)c2nc(-c3ccccc3)no2)cc1 (stereo unspecified) | 0.587
C/C(=N\NC(=O)c1c[nH]c2ccccc12)c1ccco1 | -0.682
CCOC(=O)C1=C(C)NC(=O)NC1c1ccc(OC)c(CN2CCOCC2)c1 (stereo unspecified) | 0.00374
Cc1c(C(=O)NC(C)CN2CCCCC2)oc2ccccc12 (stereo unspecified) | 0.31
COc1ccc(NS(=O)(=O)c2cccc(C(=O)N/N=C(\C)c3ccc(-n4ccnc4)cc3)c2)cc1 | -0.435
CCCCNC(=O)C1CCN(C/C(C)=C/c2ccccc2)CC1 | -0.643
Cc1ccc(-c2nnc(C)c(N3CC(C)OC(C)C3)n2)cc1 (stereo unspecified) | -0.288
COc1cc(NS(=O)(=O)c2ccccc2)ccc1-n1nc(C)cc1C | 0.193
O=C1NN(c2ccccc2)C(=O)C2C3C=CC(C4CC34)C12 (stereo unspecified) | -0.056
CCOC(=O)C1CCN(C(=O)Nc2ccc3c(c2)nc(C)n3C)CC1 | 0.0618
O=c1[nH]n(-c2ccc(Cl)cc2)c2ncccc12 | -0.246
Cc1ccc(S(C)(=O)=O)cc1S(=O)(=O)Nc1cccc(Cl)c1 | -0.058

SMILES | z-score
CCN=C1Sc2nc3ccc(OCC)cc3cc2CN1CCOC | -0.4
COc1ccc(C2C(C(=O)N3CCCC3)c3cc(OC)c(OC)cc3C(=O)N2C)cc1 (stereo unspecified) | 0.053
CCNC(=S)NS(=O)(=O)c1ccccc1 | -0.195
Cc1cc(Br)ccc1NC(=O)CCN1C(=O)c2ccncc2C1=O | -0.249
CCOC(=O)CCc1c(C)c(C#N)c2[nH]c3ccccc3n2c1=O | -0.404
C=CCn1c(SCC(=O)Nc2c(C)n(C)n(-c3ccccc3)c2=O)nc2sc(C)c(-c3ccccc3)c2c1=O | -0.378
Cc1nc2sc(C(c3ccccc3)N3CCN(c4ccccc4F)CC3)c(O)n2n1 (stereo unspecified) | 0.377
O=C(CCNC(=O)Cn1ccc2ccccc2c1=O)NCCN1CCN(c2ccccc2F)CC1 | 0.157
CC1(C)CC(=O)C(C=NCCN2CCN(C(=O)c3ccc(F)cc3)CC2)=C(O)C1 | -0.279
CCOC(=O)C(CCCOc1ccccc1)C(=O)OCC | -0.00633
CNC(=O)CN(c1cccc2ccccc12)S(C)(=O)=O | 0.105
Cc1ccc(C)c(C(=O)O/N=C(\N)c2ccc(Br)cc2)c1 | -0.197
CN(C)CCN1C(=O)C(O)=C(C(=O)c2ccco2)C1c1ccccc1F (stereo unspecified) | -0.227
Cc1nn(C(C)C(=O)NNC(=S)Nc2ccc(F)cc2)c(C)c1[N+](=O)[O-] (stereo unspecified) | -0.385
COc1ccccc1N1CCN(S(=O)(=O)c2cccc3nsnc23)CC1 | -0.393
C=CCSC1=N/C(=C\c2cc(OCC)c(OC(C)=O)c([N+](=O)[O-])c2)C(=O)S1 | -0.399
CCOC(=O)Cc1csc(NC(=O)C(C)(C)CC)n1 | 0.0749
CCC(C)n1nnc2c(=O)oc3ccccc3c21 (stereo unspecified) | -1.17
Cc1cc2cc(CN(Cc3ccco3)C(=O)C3CCCCC3)c(=O)[nH]c2cc1C | 0.00998
Cc1cccc(C(=O)NNC(=O)c2cc3cc4ccccc4nc3s2)c1 | 0.153
COc1ccc(-c2nc(C)c(C(C)=O)n2O)cc1OC | 0.246
O=C1CCCN1CCC1CCN(C2CC(=O)N(c3ccc(F)cc3)C2=O)CC1 (stereo unspecified) | 0.0802

SMILES | z-score
O=C(NC1CCCC1)C(c1ccc(Cl)cc1)N1CCc2ccccc21 (stereo unspecified) | -0.145
O=C(Nc1cc2c(oc1=O)CCCC2=O)c1cccc(Cl)c1 | -0.0638
O=C(CCCC(=O)N1CCN(c2ccccc2F)CC1)N1CCN(c2ccccc2F)CC1 | -0.439
Cn1c(NCc2ccco2)nc2c1c(=O)n(Cc1ccc(Cl)cc1Cl)c(=O)n2C | -0.0469
COc1ccc(S(=O)(=O)CCC(=O)Nc2ccc(OC)cc2OC)cc1 | 0.237
Cc1cc(NC(=O)CSc2n[nH]c(CC(C)C)n2)no1 | -0.199
Cc1cccc(-n2c(=O)cc(N3CCN(c4ccc(F)cc4)CC3)[nH]c2=O)c1 | 0.0796
CC(=O)/C=C\c1cn(-c2ncc(C(F)(F)F)cc2Cl)c2ccccc12 | -0.119
CC(C)CC(C(=O)OCC(=O)c1c(N)n(C)c(=O)n(C)c1=O)N1C(=O)c2ccccc2C1=O (stereo unspecified) | -0.0745
O=C1c2cccnc2C(Nc2ccc(S(=O)(=O)N3CCCCC3)cc2)N1Cc1ccccc1 (stereo unspecified) | 0.26
COc1ccc(C(=O)/C=C/C(=O)N(Cc2ccccc2OC)C(C(=O)NC2CCCCC2)c2ccncc2)c(O)c1 (stereo unspecified) | -0.0916
C/C(=N/NC(=O)CN1CCN(Cc2ccccc2Cl)CC1)c1ccncc1 | -0.146
Cc1cc(C)n2nc(SCC(=O)N(C)Cc3ccccc3)nc2n1 | 0.342
N#CC1=C(N)Oc2cc3ccccc3cc2C1c1cccnc1 (stereo unspecified) | -0.804
O=c1/c(=C/c2ccc(O)cc2)sc2n1CCCN=2 | -0.159
Cc1ccc(CCNC(=O)CN(C)S(=O)(=O)c2ccc3c(c2)c(=O)n(C)c(=O)n3C)cc1 | -0.023
CCc1nnc(NC(=O)c2nc3nc(C)cc(C)n3n2)s1 | 0.337
O=C(CSc1nnc(NC(=O)c2ccccc2Cl)s1)Nc1ccc2c(c1)oc1ccccc12 | -0.889
CCC(C)NC(=O)CCn1c(-c2ccccc2)cc(C(C)=O)c1C (stereo unspecified) | -0.179
OCc1nc(CO)n(Cc2ccccc2)n1 | -0.375
O=C(Nc1ccc(S(=O)(=O)Nc2nccs2)cc1)/C(=C/c1ccccc1Cl)NC(=O)c1ccccc1 | -0.137
COC(=O)C1C(=O)CC(C)(O)C(C(=O)OC)C1c1ccc2c(c1)OCO2 (stereo unspecified) | 0.446

SMILES | z-score
O=C(O)Cc1ccc2[nH]c3ccc(CC(=O)O)cc3c2c1 | 0.103
CCOC(=O)C1=C(C)N(C)C(=O)NC1c1c(C)nn(-c2ccc(C)cc2)c1Cl (stereo unspecified) | -0.228
COCCCN1Cc2cccc(C(=O)O)c2C1=O | 0.334
Cc1ccc(NC(=O)N(Cc2cccnc2)Cc2ccco2)cc1C | 0.0528
O=C(CN(Cc1ccco1)C(=O)CCC(=O)Nc1nccs1)NCc1ccccc1 | -0.046
COc1ccc(NC(=O)CSc2nnnn2-c2ccc(OC)cc2)cc1 | -0.291
CN1CCN(C(=O)CC23CC4CC(CC(C4)C2)C3)CC1 | 0.00881
CCCn1c(CC)nc([N+](=O)[O-])c1S(=O)(=O)c1ccccc1 | -0.218
COc1ccc(N2CCN(CCCNS(=O)(=O)c3c(C)noc3/C=C/N(C)C)CC2)cc1 | 0.114
COc1cc(C)ccc1OCCOCCOc1ccc(C)cc1[N+](=O)[O-] | -0.332
COc1ccc(NC(=O)N(Cc2ccc3c(c2)OCO3)C2CC(=O)N(c3ccc(OC)cc3)C2=O)cc1 (stereo unspecified) | 0.0823
COc1cc(CNCc2ccco2)ccc1OCc1ccccc1 | 0.00912
Cc1ccc2cc(C)c3nnc(SCC(=O)N4CCN(C(=O)c5ccco5)CC4)n3c2c1 | -1.02
O=C(Nc1ccccc1)c1cccc(-c2nnc(-c3ccccc3)o2)c1 | 0.0469
CCCCCCCCNC(=O)/C(C#N)=C/c1ccccc1[N+](=O)[O-] | -0.0403
CC(C)CN1C(=O)NC(NC(=O)c2cccnc2)(C(F)(F)F)C1=O (stereo unspecified) | 0.807
CC(=O)N1CCN2C(=O)C1CCCC(=O)c1cc(C3CCCCC3)ccc12 (stereo unspecified) | -0.657
Cc1occc1C(=O)N/N=C/c1c[nH]c2ccccc12 | -0.213
